# Assay results: the supplement of paper PMC8728848
# Some of the results follow.
# Tests used:
# Assay in all cases: glycan array binding signal (z-score within array); higher = stronger binding
# Settings in all cases: glycan notation: IUPAC condensed, linker removed; mutation: N288D, K313I
# [1] = target: Fuc(a1-2)[GalNAc(b1-3)]Gal
# Method in brief: (§1)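 Glycan array data came from 3228 arrays in the Consortium for Functional Glycomics database, and only arrays with an available protein sequence were kept. Glycan names were put into IUPAC-condensed notation, and columns mapping to the same glycan were averaged. The binding signal is a within-array Z-score, averaged across arrays of one protein sequence run at different concentrations or buffers and across linkers. A negative Z-score can be read as non-binding.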
# Fuc(a1-3)GlcNAc = target: Fuc(a1-3)GlcNAc
# Method in brief: as §1
# [2] = target: Fuc(a1-3)[Gal(b1-4)]Glc6S
# Method in brief: as §1
# [3] = target: Fuc(a1-3)[Gal(b1-4)]GlcNAc
# Method in brief: as §1
# [4] = target: Fuc(a1-3)[Gal(b1-4)]GlcNAc(b1-2)Man
# Method in brief: as §1
# [5] = target: Fuc(a1-3)[Gal(b1-4)]GlcNAc(b1-2)Man(a1-3)[Fuc(a1-3)[Gal(b1-4)]GlcNAc(b1-2)Man(a1-6)]Man(b1-4)GlcNAc(b1-4)GlcNAc
# Method in brief: as §1
# [6] = target: Fuc(a1-3)[Gal(b1-4)]GlcNAc(b1-2)Man(a1-3)[Fuc(a1-3)[Gal(b1-4)]GlcNAc(b1-2)Man(a1-6)]Man(b1-4)GlcNAc(b1-4)[Fuc(a1-6)]GlcNAc
# Method in brief: as §1
# [7] = target: Fuc(a1-3)[Gal(b1-4)]GlcNAc(b1-3)Gal(b1-3)[Fuc(a1-4)]GlcNAc
# Method in brief: as §1
# [8] = target: Fuc(a1-3)[Gal(b1-4)]GlcNAc(b1-3)Gal(b1-4)[Fuc(a1-3)]GlcNAc
# Method in brief: as §1
# [9] = target: Fuc(a1-3)[Gal(b1-4)]GlcNAc(b1-3)Gal(b1-4)[Fuc(a1-3)]GlcNAc(b1-3)Gal(b1-4)[Fuc(a1-3)]GlcNAc
# Method in brief: as §1
# [10] = target: Fuc(a1-3)[Gal(b1-4)]GlcNAc(b1-3)GalNAc
# Method in brief: as §1
# [11] = target: Fuc(a1-3)[Gal(b1-4)]GlcNAc(b1-6)GalNAc
# Method in brief: as §1
# [12] = target: Fuc(a1-3)[Gal(b1-4)]GlcNAc(b1-6)[Gal(b1-3)GlcNAc(b1-3)]Gal(b1-4)Glc
# Method in brief: as §1
# [13] = target: Fuc(a1-3)[Gal(b1-4)]GlcNAc6S
# Method in brief: as §1
# [14] = target: Fuc(a1-3)[Gal3S(b1-4)]Glc
# Method in brief: as §1
# [15] = target: Fuc(a1-3)[Gal3S(b1-4)]GlcNAc
# Method in brief: as §1
# [16] = target: Fuc(a1-3)[Gal3S(b1-4)]GlcNAc6S
# Method in brief: as §1
# [17] = target: Fuc(a1-3)[GalNAc(b1-4)]GlcNAc
# Method in brief: as §1
# [18] = target: Fuc(a1-3)[GalNAc(b1-4)]GlcNAc6S
# Method in brief: as §1
# Fuc(a1-4)GlcNAc = target: Fuc(a1-4)GlcNAc
# Method in brief: as §1
# Fuc(b1-3)GlcNAc = target: Fuc(b1-3)GlcNAc
# Method in brief: as §1
# Gal(a1-2)Gal = target: Gal(a1-2)Gal
# Method in brief: as §1
# Gal(a1-3)Gal = target: Gal(a1-3)Gal
# Method in brief: as §1
# Gal(a1-3)Gal(b1-3)GlcNAc = target: Gal(a1-3)Gal(b1-3)GlcNAc
# Method in brief: as §1
# [19] = target: Gal(a1-3)Gal(b1-3)GlcNAc(b1-2)Man
# Method in brief: as §1
# [20] = target: Gal(a1-3)Gal(b1-3)GlcNAc(b1-2)Man(a1-3)[Gal(a1-3)Gal(b1-3)GlcNAc(b1-2)Man(a1-6)]Man(b1-4)GlcNAc(b1-4)GlcNAc
# Method in brief: as §1
# [21] = target: Gal(a1-3)Gal(b1-3)GlcNAc(b1-3)GalNAc
# Method in brief: as §1
# [22] = target: Gal(a1-3)Gal(b1-3)GlcNAc(b1-6)GalNAc
# Method in brief: as §1
# [23] = target: Gal(a1-3)Gal(b1-3)[Fuc(a1-4)]GlcNAc(b1-2)Man(a1-3)[Gal(a1-3)Gal(b1-3)[Fuc(a1-4)]GlcNAc(b1-2)Man(a1-6)]Man(b1-4)GlcNAc(b1-4)GlcNAc
# Method in brief: as §1
# Gal(a1-3)Gal(b1-4)Glc = target: Gal(a1-3)Gal(b1-4)Glc
# Method in brief: as §1
# Gal(a1-3)Gal(b1-4)GlcNAc = target: Gal(a1-3)Gal(b1-4)GlcNAc
# Method in brief: as §1
# [24] = target: Gal(a1-3)Gal(b1-4)GlcNAc(b1-2)Man
# Method in brief: as §1
# [25] = target: Gal(a1-3)Gal(b1-4)GlcNAc(b1-2)Man(a1-3)[Gal(a1-3)Gal(b1-4)GlcNAc(b1-2)Man(a1-6)]Man(b1-4)GlcNAc(b1-4)GlcNAc
# Method in brief: as §1
# [26] = target: Gal(a1-3)Gal(b1-4)GlcNAc(b1-3)GalNAc
# Method in brief: as §1
# [27] = target: Gal(a1-3)Gal(b1-4)GlcNAc(b1-6)GalNAc
# Method in brief: as §1
# [28] = target: Gal(a1-3)Gal(b1-4)[Fuc(a1-3)]GlcNAc
# Method in brief: as §1
# [29] = target: Gal(a1-3)Gal(b1-4)[Fuc(a1-3)]GlcNAc(b1-2)Man(a1-3)[Gal(a1-3)Gal(b1-4)[Fuc(a1-3)]GlcNAc(b1-2)Man(a1-6)]Man(b1-4)GlcNAc(b1-4)GlcNAc
# Method in brief: as §1
# Gal(a1-3)GalNAc = target: Gal(a1-3)GalNAc
# Method in brief: as §1
# [30] = target: Gal(a1-3)[Gal(a1-4)]Gal(b1-4)GlcNAc
# Method in brief: as §1
# [31] = target: Gal(a1-4)Gal(b1-3)GlcNAc(b1-2)Man(a1-3)[Gal(a1-4)Gal(b1-3)GlcNAc(b1-2)Man(a1-6)]Man(b1-4)GlcNAc(b1-4)GlcNAc
# Method in brief: as §1
# Gal(a1-4)Gal(b1-4)Glc = target: Gal(a1-4)Gal(b1-4)Glc
# Method in brief: as §1
# Gal(a1-4)Gal(b1-4)GlcNAc = target: Gal(a1-4)Gal(b1-4)GlcNAc
# Method in brief: as §1
# [32] = target: Gal(a1-4)Gal(b1-4)GlcNAc(b1-2)Man(a1-3)[Gal(a1-4)Gal(b1-4)GlcNAc(b1-2)Man(a1-6)]Man(b1-4)GlcNAc(b1-4)GlcNAc
# Method in brief: as §1
# [33] = target: Gal(a1-4)Gal(b1-4)GlcNAc(b1-3)Gal(b1-4)Glc
# Method in brief: as §1
# Gal(a1-4)GlcNAc = target: Gal(a1-4)GlcNAc
# Method in brief: as §1
binder,measurement,setting,value
"Langerin (Homo sapiens), Q9UJ71 (protein) STLNAQIPELKSDLEKASALNTKIRALQGSLENMSKLLKRQNDILQVVSQGWKYFKGNFYYFSLIPKTWYSAEQFCVSRNSHLTSVTSESEQEFLYKTAGGLIYWIGLTKAGMEGDWSWVDDTPFNKVQSARFWIPGEPNDAGNNEHCGNIKAPSLQAWNDAPCDITFLFICKRPYVPSEP",glycan array binding signal (z-score),[1],-0.241
same,glycan array binding signal (z-score),Fuc(a1-3)GlcNAc,-0.206
same,glycan array binding signal (z-score),[2],-0.092
same,glycan array binding signal (z-score),[3],-0.213
same,glycan array binding signal (z-score),[4],-0.201
same,glycan array binding signal (z-score),[5],-0.174
same,glycan array binding signal (z-score),[6],-0.106
same,glycan array binding signal (z-score),[7],-0.035
same,glycan array binding signal (z-score),[8],-0.124
same,glycan array binding signal (z-score),[9],-0.239
same,glycan array binding signal (z-score),[10],-0.063
same,glycan array binding signal (z-score),[11],0.022
same,glycan array binding signal (z-score),[12],-0.363
same,glycan array binding signal (z-score),[13],-0.2
same,glycan array binding signal (z-score),[14],0.014
same,glycan array binding signal (z-score),[15],0.041
same,glycan array binding signal (z-score),[16],0.085
same,glycan array binding signal (z-score),[17],0.162
same,glycan array binding signal (z-score),[18],0.077
same,glycan array binding signal (z-score),Fuc(a1-4)GlcNAc,-0.14
same,glycan array binding signal (z-score),Fuc(b1-3)GlcNAc,-0.243
same,glycan array binding signal (z-score),Gal(a1-2)Gal,-0.241
same,glycan array binding signal (z-score),Gal(a1-3)Gal,-0.143
same,glycan array binding signal (z-score),Gal(a1-3)Gal(b1-3)GlcNAc,-0.153
same,glycan array binding signal (z-score),[19],-0.205
same,glycan array binding signal (z-score),[20],0.038
same,glycan array binding signal (z-score),[21],-0.173
same,glycan array binding signal (z-score),[22],10.4
same,glycan array binding signal (z-score),[23],-0.042
same,glycan array binding signal (z-score),Gal(a1-3)Gal(b1-4)Glc,-0.169
same,glycan array binding signal (z-score),Gal(a1-3)Gal(b1-4)GlcNAc,0.035
same,glycan array binding signal (z-score),[24],-0.284
same,glycan array binding signal (z-score),[25],0.041
same,glycan array binding signal (z-score),[26],-0.069
same,glycan array binding signal (z-score),[27],-0.195
same,glycan array binding signal (z-score),[28],-0.211
same,glycan array binding signal (z-score),[29],-0.083
same,glycan array binding signal (z-score),Gal(a1-3)GalNAc,-0.111
same,glycan array binding signal (z-score),[30],-0.019
same,glycan array binding signal (z-score),[31],-0.106
same,glycan array binding signal (z-score),Gal(a1-4)Gal(b1-4)Glc,0.698
same,glycan array binding signal (z-score),Gal(a1-4)Gal(b1-4)GlcNAc,-0.156
same,glycan array binding signal (z-score),[32],-0.269
same,glycan array binding signal (z-score),[33],-0.119
same,glycan array binding signal (z-score),Gal(a1-4)GlcNAc,-0.247
